# Data: the supplement of paper PMC8728848
# Some of the results follow.
# B1: Mindin (Homo sapiens), Q9BUD6 (protein)
# chain: MENPSPAAALGKALCALLLATLGAAGQPLGGESICSARALAKYSITFTGKWSQTAFPKQYPLFRPPAQWSSLLGAAHSSDYSMWRKNQYVSNGLRDFAERGEAWALMKEIEAAGEALQSVHEVFSAPAVPSGTGQTSAELEVQRRHSLVSFVVRIVPSPDWFVGVDSLDLCDGDRWREQAALDLYPYDAGTDSGFTFSSPNFATIPQDTVTEITSSSPSHPANSFYYPRLKALPPIARVTLVRLRQSPRAFIPPAPVLPSRDNEIVDSASVPETPLDCEVSLWSSWGLCGGHCGRLGTKSRTRYVRVQPANNGSPCPELEEEAECVPDNCV
# What was measured:
# Test in all cases: glycan array binding signal (z-score within array); higher = stronger binding
# Conditions in all cases: glycan notation: IUPAC condensed, linker removed
# Fuc(a1-2)Gal = target: Fuc(a1-2)Gal
# In short: (§1)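 Columns mapping to the same glycan were averaged after glycan names were converted to IUPAC-condensed notation. The data come from 3228 arrays in the Consortium for Functional Glycomics database, limited to those with an available protein sequence. Binding is reported as a within-array Z-score averaged across arrays of one protein sequence and across linkers.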
# Fuc(a1-2)Gal(b1-3)GalNAc = target: Fuc(a1-2)Gal(b1-3)GalNAc
# In short: as §1
# [1] = target: Fuc(a1-2)Gal(b1-3)GalNAc(b1-3)Gal
# In short: as §1
# [2] = target: Fuc(a1-2)Gal(b1-3)GalNAc(b1-3)Gal(a1-4)Gal(b1-4)Glc
# In short: as §1
# [3] = target: Fuc(a1-2)Gal(b1-3)GalNAc(b1-4)[Neu5Ac(a2-3)]Gal(b1-4)Glc
# In short: as §1
# Fuc(a1-2)Gal(b1-3)GlcNAc = target: Fuc(a1-2)Gal(b1-3)GlcNAc
# In short: as §1
# [4] = target: Fuc(a1-2)Gal(b1-3)GlcNAc(b1-3)Gal(b1-4)Glc
# In short: as §1
# [5] = target: Fuc(a1-2)Gal(b1-3)[Fuc(a1-4)]GlcNAc
# In short: as §1
# Fuc(a1-2)Gal(b1-4)Glc = target: Fuc(a1-2)Gal(b1-4)Glc
# In short: as §1
# Fuc(a1-2)Gal(b1-4)Glc6S = target: Fuc(a1-2)Gal(b1-4)Glc6S
# In short: as §1
# Fuc(a1-2)Gal(b1-4)GlcNAc = target: Fuc(a1-2)Gal(b1-4)GlcNAc
# In short: as §1
# [6] = target: Fuc(a1-2)Gal(b1-4)GlcNAc(b1-3)Gal(b1-4)GlcNAc
# In short: as §1
# [7] = target: Fuc(a1-2)Gal(b1-4)GlcNAc(b1-3)Gal(b1-4)GlcNAc(b1-3)Gal(b1-4)GlcNAc
# In short: as §1
# [8] = target: Fuc(a1-2)Gal(b1-4)GlcNAc6S
# In short: as §1
# [9] = target: Fuc(a1-2)Gal(b1-4)[Fuc(a1-3)]GlcNAc
# In short: as §1
# [10] = target: Fuc(a1-2)Gal(b1-4)[Fuc(a1-3)]GlcNAc(b1-3)Gal(b1-4)[Fuc(a1-3)]GlcNAc
# In short: as §1
# [11] = target: Fuc(a1-2)Gal(b1-4)[Fuc(a1-3)]GlcNAc(b1-3)Gal(b1-4)[Fuc(a1-3)]GlcNAc(b1-3)Gal(b1-4)[Fuc(a1-3)]GlcNAc
# In short: as §1
# Fuc(a1-2)Gal6S(b1-4)Glc = target: Fuc(a1-2)Gal6S(b1-4)Glc
# In short: as §1
# [12] = target: Fuc(a1-2)Gal6S(b1-4)Glc6S
# In short: as §1
# [13] = target: Fuc(a1-2)Gal6S(b1-4)GlcNAc
# In short: as §1
# Fuc(a1-2)GlcNAc = target: Fuc(a1-2)GlcNAc
# In short: as §1
# Fuc(a1-2)[Gal(a1-3)]Gal = target: Fuc(a1-2)[Gal(a1-3)]Gal
# In short: as §1
# [14] = target: Fuc(a1-2)[Gal(a1-3)]Gal(b1-3)GlcNAc
# In short: as §1
# [15] = target: Fuc(a1-2)[Gal(a1-3)]Gal(b1-4)Glc
# In short: as §1
# [16] = target: Fuc(a1-2)[Gal(a1-3)]Gal(b1-4)GlcNAc
# In short: as §1
# [17] = target: Fuc(a1-2)[Gal(a1-3)]Gal(b1-4)[Fuc(a1-3)]GlcNAc
# In short: as §1
# [18] = target: Fuc(a1-2)[Gal(a1-4)]Gal(b1-4)GlcNAc
# In short: as §1
# [19] = target: Fuc(a1-2)[GalNAc(a1-3)]Gal
# In short: as §1
# [20] = target: Fuc(a1-2)[GalNAc(a1-3)]Gal(b1-3)GlcNAc
# In short: as §1
# [21] = target: Fuc(a1-2)[GalNAc(a1-3)]Gal(b1-4)Glc
# In short: as §1
# [22] = target: Fuc(a1-2)[GalNAc(a1-3)]Gal(b1-4)GlcNAc
# In short: as §1
# [23] = target: Fuc(a1-2)[GalNAc(a1-3)]Gal(b1-4)[Fuc(a1-3)]GlcNAc
# In short: as §1
# [24] = target: Fuc(a1-2)[GalNAc(a1-4)]Gal(b1-4)GlcNAc
# In short: as §1
# [25] = target: Fuc(a1-2)[GalNAc(b1-3)]Gal
# In short: as §1
# Fuc(a1-3)GlcNAc = target: Fuc(a1-3)GlcNAc
# In short: as §1
# [26] = target: Fuc(a1-3)[Gal(b1-4)]Glc6S
# In short: as §1
# [27] = target: Fuc(a1-3)[Gal(b1-4)]GlcNAc
# In short: as §1
# [28] = target: Fuc(a1-3)[Gal(b1-4)]GlcNAc(b1-3)Gal(b1-3)[Fuc(a1-4)]GlcNAc
# In short: as §1
# [29] = target: Fuc(a1-3)[Gal(b1-4)]GlcNAc(b1-4)Gal(b1-4)[Fuc(a1-3)]GlcNAc
# In short: as §1
# [30] = target: Fuc(a1-3)[Gal(b1-4)]GlcNAc(b1-4)Gal(b1-4)[Fuc(a1-3)]GlcNAc(b1-4)Gal(b1-4)[Fuc(a1-3)]GlcNAc
# In short: as §1
# [31] = target: Fuc(a1-3)[Gal(b1-4)]GlcNAc6S
# In short: as §1
# [32] = target: Fuc(a1-3)[Gal3S(b1-4)]Glc6S
# In short: as §1
# [33] = target: Fuc(a1-3)[Gal3S(b1-4)]GlcNAc
# In short: as §1
# [34] = target: Fuc(a1-3)[Gal3S(b1-4)]GlcNAc6S
# In short: as §1
# [35] = target: Fuc(a1-3)[GalNAc(b1-4)]GlcNAc
# In short: as §1
binder,measurement,setting,value
B1,glycan array binding signal (z-score),Fuc(a1-2)Gal,-0.273
same,glycan array binding signal (z-score),Fuc(a1-2)Gal(b1-3)GalNAc,-0.365
same,glycan array binding signal (z-score),[1],-0.28
same,glycan array binding signal (z-score),[2],-0.231
same,glycan array binding signal (z-score),[3],-0.183
same,glycan array binding signal (z-score),Fuc(a1-2)Gal(b1-3)GlcNAc,-0.276
same,glycan array binding signal (z-score),[4],-0.264
same,glycan array binding signal (z-score),[5],-0.24
same,glycan array binding signal (z-score),Fuc(a1-2)Gal(b1-4)Glc,-0.24
same,glycan array binding signal (z-score),Fuc(a1-2)Gal(b1-4)Glc6S,-0.385
same,glycan array binding signal (z-score),Fuc(a1-2)Gal(b1-4)GlcNAc,-0.27
same,glycan array binding signal (z-score),[6],-0.186
same,glycan array binding signal (z-score),[7],0.4
same,glycan array binding signal (z-score),[8],-0.37
same,glycan array binding signal (z-score),[9],-0.185
same,glycan array binding signal (z-score),[10],0.005
same,glycan array binding signal (z-score),[11],-0.231
same,glycan array binding signal (z-score),Fuc(a1-2)Gal6S(b1-4)Glc,-0.378
same,glycan array binding signal (z-score),[12],-0.173
same,glycan array binding signal (z-score),[13],0.142
same,glycan array binding signal (z-score),Fuc(a1-2)GlcNAc,-0.191
same,glycan array binding signal (z-score),Fuc(a1-2)[Gal(a1-3)]Gal,-0.31
same,glycan array binding signal (z-score),[14],-0.103
same,glycan array binding signal (z-score),[15],-0.248
same,glycan array binding signal (z-score),[16],-0.339
same,glycan array binding signal (z-score),[17],-0.133
same,glycan array binding signal (z-score),[18],0.614
same,glycan array binding signal (z-score),[19],-0.311
same,glycan array binding signal (z-score),[20],-0.329
same,glycan array binding signal (z-score),[21],-0.308
same,glycan array binding signal (z-score),[22],-0.266
same,glycan array binding signal (z-score),[23],-0.23
same,glycan array binding signal (z-score),[24],2.81
same,glycan array binding signal (z-score),[25],0.777
same,glycan array binding signal (z-score),Fuc(a1-3)GlcNAc,-0.29
same,glycan array binding signal (z-score),[26],-0.298
same,glycan array binding signal (z-score),[27],-0.326
same,glycan array binding signal (z-score),[28],-0.367
same,glycan array binding signal (z-score),[29],-0.142
same,glycan array binding signal (z-score),[30],-0.283
same,glycan array binding signal (z-score),[31],-0.322
same,glycan array binding signal (z-score),[32],-0.125
same,glycan array binding signal (z-score),[33],-0.223
same,glycan array binding signal (z-score),[34],-0.133
same,glycan array binding signal (z-score),[35],-0.316
